Positions count from the first letter of the chain named. The list shows a part of the results.

31 molecules from paper PMC9911399, “Two distinct binding modes provide the RNA-binding protein RbFox with extraordinary sequence specificity” can be followed below.

The labels stand for the following.
T1: RBFOX1 RRM (Homo sapiens, UniProt Q9NWB1 109-208)
T1 sequence: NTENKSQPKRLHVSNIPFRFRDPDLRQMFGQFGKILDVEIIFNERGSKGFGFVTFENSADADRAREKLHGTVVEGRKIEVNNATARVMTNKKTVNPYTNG

B1: GGAUUAG (DNA:RNA)
RNA: GGGAGACCGGAAUUCAGAUUGUCCGGAUUAGUUAAAUCCCGUCGUAGCCACCA
DNA 1: CAATCTGAATTCCGGTCTCCC
DNA 2: TGGTGGCTACGACGGGATT
B2: ACCAGAU (DNA:RNA)
RNA: B1 RNA with G25A, G26C, A27C, U28A, U29G, G31U
DNA 1: CAATCTGAATTCCGGTCTCCC
DNA 2: TGGTGGCTACGACGGGATT
B3: CUCGGCC (DNA:RNA)
RNA: GGGAGACCGGAAUUCAGAUUGUCCCUCGGCCUUAAAUCCCGUCGUAGCCACCA
DNA 1: CAATCTGAATTCCGGTCTCCC
DNA 2: TGGTGGCTACGACGGGATT
B4: AUGGGAG (DNA:RNA)
RNA: B3 RNA with C25A, C27G, C30A, C31G
DNA 1: CAATCTGAATTCCGGTCTCCC
DNA 2: TGGTGGCTACGACGGGATT
B5: UCCUCUA (DNA:RNA)
RNA: B3 RNA with C25U, U26C, G28U, G29C, C30U, C31A
DNA 1: CAATCTGAATTCCGGTCTCCC
DNA 2: TGGTGGCTACGACGGGATT
B6: CCACGUA (DNA:RNA)
RNA: B3 RNA with U26C, C27A, G28C, C30U, C31A
DNA 1: CAATCTGAATTCCGGTCTCCC
DNA 2: TGGTGGCTACGACGGGATT
B7: UCUGGGC (DNA:RNA)
RNA: B3 RNA with C25U, U26C, C27U, C30G
DNA 1: CAATCTGAATTCCGGTCTCCC
DNA 2: TGGTGGCTACGACGGGATT
B8: CGCACCA (DNA:RNA)
RNA: B3 RNA with U26G, G28A, G29C, C31A
DNA 1: CAATCTGAATTCCGGTCTCCC
DNA 2: TGGTGGCTACGACGGGATT
B9: UCCUACG (DNA:RNA)
RNA: B3 RNA with C25U, U26C, G28U, G29A, C31G
DNA 1: CAATCTGAATTCCGGTCTCCC
DNA 2: TGGTGGCTACGACGGGATT
B10: GAUAUAC (DNA:RNA)
RNA: B1 RNA with G26A, A27U, U28A, G31C
DNA 1: CAATCTGAATTCCGGTCTCCC
DNA 2: TGGTGGCTACGACGGGATT
B11: AGCGUGG (DNA:RNA)
RNA: B1 RNA with G25A, A27C, U28G, A30G
DNA 1: CAATCTGAATTCCGGTCTCCC
DNA 2: TGGTGGCTACGACGGGATT
B12: GCAAAUU (DNA:RNA)
RNA: B1 RNA with G26C, U28A, U29A, A30U, G31U
DNA 1: CAATCTGAATTCCGGTCTCCC
DNA 2: TGGTGGCTACGACGGGATT
B13: UUAGUCU (DNA:RNA)
RNA: B3 RNA with C25U, C27A, G29U, C31U
DNA 1: CAATCTGAATTCCGGTCTCCC
DNA 2: TGGTGGCTACGACGGGATT
B14: GCUGCCU (DNA:RNA)
RNA: B3 RNA with C25G, U26C, C27U, G29C, C31U
DNA 1: CAATCTGAATTCCGGTCTCCC
DNA 2: TGGTGGCTACGACGGGATT
B15: CACUCGC (DNA:RNA)
RNA: B3 RNA with U26A, G28U, G29C, C30G
DNA 1: CAATCTGAATTCCGGTCTCCC
DNA 2: TGGTGGCTACGACGGGATT
B16: GAGCCAA (DNA:RNA)
RNA: B1 RNA with G26A, A27G, U28C, U29C, G31A
DNA 1: CAATCTGAATTCCGGTCTCCC
DNA 2: TGGTGGCTACGACGGGATT
B17: GGGGGGC (DNA:RNA)
RNA: B3 RNA with C25G, U26G, C27G, C30G
DNA 1: CAATCTGAATTCCGGTCTCCC
DNA 2: TGGTGGCTACGACGGGATT
B18: ACGAUCU (DNA:RNA)
RNA: B3 RNA with C25A, U26C, C27G, G28A, G29U, C31U
DNA 1: CAATCTGAATTCCGGTCTCCC
DNA 2: TGGTGGCTACGACGGGATT
B19: UUAACCA (DNA:RNA)
RNA: B3 RNA with C25U, C27A, G28A, G29C, C31A
DNA 1: CAATCTGAATTCCGGTCTCCC
DNA 2: TGGTGGCTACGACGGGATT
B20: AUAACGA (DNA:RNA)
RNA: B3 RNA with C25A, C27A, G28A, G29C, C30G, C31A
DNA 1: CAATCTGAATTCCGGTCTCCC
DNA 2: TGGTGGCTACGACGGGATT
B21: GCUGCCC (DNA:RNA)
RNA: B3 RNA with C25G, U26C, C27U, G29C
DNA 1: CAATCTGAATTCCGGTCTCCC
DNA 2: TGGTGGCTACGACGGGATT
B22: CUGAUCG (DNA:RNA)
RNA: B3 RNA with C27G, G28A, G29U, C31G
DNA 1: CAATCTGAATTCCGGTCTCCC
DNA 2: TGGTGGCTACGACGGGATT
B23: CGCCGCG (DNA:RNA)
RNA: B3 RNA with U26G, G28C, C31G
DNA 1: CAATCTGAATTCCGGTCTCCC
DNA 2: TGGTGGCTACGACGGGATT
B24: CUUAGCU (DNA:RNA)
RNA: B3 RNA with C27U, G28A, C31U
DNA 1: CAATCTGAATTCCGGTCTCCC
DNA 2: TGGTGGCTACGACGGGATT
B25: CUACAUG (DNA:RNA)
RNA: B3 RNA with C27A, G28C, G29A, C30U, C31G
DNA 1: CAATCTGAATTCCGGTCTCCC
DNA 2: TGGTGGCTACGACGGGATT
B26: AAGAGGC (DNA:RNA)
RNA: B3 RNA with C25A, U26A, C27G, G28A, C30G
DNA 1: CAATCTGAATTCCGGTCTCCC
DNA 2: TGGTGGCTACGACGGGATT
B27: AUGUCAU (DNA:RNA)
RNA: B1 RNA with G25A, G26U, A27G, U29C, G31U
DNA 1: CAATCTGAATTCCGGTCTCCC
DNA 2: TGGTGGCTACGACGGGATT
B28: CUAAGGA (DNA:RNA)
RNA: B3 RNA with C27A, G28A, C30G, C31A
DNA 1: CAATCTGAATTCCGGTCTCCC
DNA 2: TGGTGGCTACGACGGGATT
B29: UUGAAAG (DNA:RNA)
RNA: B1 RNA with G25U, G26U, A27G, U28A, U29A
DNA 1: CAATCTGAATTCCGGTCTCCC
DNA 2: TGGTGGCTACGACGGGATT
B30: UUUAGCG (DNA:RNA)
RNA: B3 RNA with C25U, C27U, G28A, C31G
DNA 1: CAATCTGAATTCCGGTCTCCC
DNA 2: TGGTGGCTACGACGGGATT
B31: AGGGCAG (DNA:RNA)
RNA: B1 RNA with G25A, A27G, U28G, U29C
DNA 1: CAATCTGAATTCCGGTCTCCC
DNA 2: TGGTGGCTACGACGGGATT

The assay concerns the target T1, RBFOX1 RRM. Description: EMSA; HiTS-Eq, 1 nM pool, 10 min; buffer printed only for the single-RNA assays: 10 mM Tris pH 7.5, 150 mM NaCl, 3.4 mM EDTA, 0.001% NP-40, 30 C. As to conditions: tags: His6 N-terminal (pET28a); label: 5' 32P. In short, it runs like this:
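Purified wild-type or mutant RbFox RRM at increasing concentrations was equilibrated with 1 nM of 5′-radiolabelled RNA carrying 7 randomized nucleotides for 10 min in 50 µL. Unbound RNA was separated by 8% native PAGE and sequenced. Relative association constants came from read-count changes of each RNA species compared with the control reaction, normalised to the cognate motif.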
(Mobility shift assays separate free from complexed probe on a gel.)
Take B1: the binding signal is 0.0127 KA relative to UGCAUGU. Regarding B2, the binding signal was 0.00102 KA relative to UGCAUGU. Take B3: the binding signal was 0.0164 KA relative to UGCAUGU. As to B4, the binding signal is 0.00848 KA relative to UGCAUGU. Regarding B5, the binding signal is 0.0048 KA relative to UGCAUGU. On to B6, for which the binding signal was 0.00468 KA relative to UGCAUGU. As for B7, the binding signal was 0.00557 KA relative to UGCAUGU. Turning to B8, the binding signal is 0.00405 KA relative to UGCAUGU. For B9, the binding signal is 0.00598 KA relative to UGCAUGU. The value for B10 was 0.00528 KA relative to UGCAUGU; that for B11 was 0.0172 KA relative to UGCAUGU; that for B12 was 0.00237 KA relative to UGCAUGU.

For B13, the binding signal is 0.0121 KA relative to UGCAUGU.

On to B14, for which the binding signal was 0.017 KA relative to UGCAUGU. Turning to B15, the binding signal is 0.00439 KA relative to UGCAUGU. Turning to B16, the binding signal is 0.00488 KA relative to UGCAUGU. On to B17, for which the binding signal was 0.0272 KA relative to UGCAUGU. Consider B18, for which the binding signal is 0.00593 KA relative to UGCAUGU. For B19, the binding signal is 0.00177 KA relative to UGCAUGU. For the molecule B20, the binding signal is 0.00354 KA relative to UGCAUGU. With B21 the figure was 0.0161 KA relative to UGCAUGU; with B22, 0.0247 KA relative to UGCAUGU.

On to B23, for which the binding signal is 0.00911 KA relative to UGCAUGU. With B24 the figure was 0.00703 KA relative to UGCAUGU. As to B25, the binding signal is 0.0115 KA relative to UGCAUGU.

Regarding B26, the binding signal was 0.00534 KA relative to UGCAUGU. The value for B27 was 0.00445 KA relative to UGCAUGU; that for B28 was 0.00343 KA relative to UGCAUGU; that for B29 was 0.0171 KA relative to UGCAUGU. In the case of B30, the binding signal is 0.0118 KA relative to UGCAUGU. For the molecule B31, the binding signal was 0.0242 KA relative to UGCAUGU.
